# Source: the supplement of paper PMC4604168 (melanoma cell lines)
# Some of the results follow. Most values come without repeats; read them as rough.
# System: MeWo
# Experiment: cell count relative to DMSO control; melanoma cells; higher = more viable cells
# Conditions: library dose: low library concentration; 72 h
# 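Also: cell number obtained by counting DAPI-stained nuclei in high-throughput microscope images with image analysis software, screen run in 1,536-well plates.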
row,SMILES,cell count
1,"O=C(CCCCCCC(=O)Nc1ccccc1)NO [vorinostat] + CC(C)CCN1c2nc(Nc3cc(F)c(O)c(F)c3)ncc2N(C)C(=O)C1C [BID1870] (first compound 0.08 µM, partner dose 0.2 µM)",82.2%
2,"C#Cc1cccc(Nc2ncnc3cc(OCCOC)c(OCCOC)cc23)c1 [erlotinib] + O=C(O)C(=O)Nc1sc2c(c1C(=O)O)CCNC2 [TCS401] (first compound 0.8 µM, partner dose 1.66667 µM)",103%
3,"C#Cc1cccc(Nc2ncnc3cc(OCCOC)c(OCCOC)cc23)c1 [erlotinib] + COc1ccc2c(c1)CCC1C2CCC2(C)C(NCCCCCCN3C(=O)C=CC3=O)CCC12 [U73122] (first compound 0.8 µM, partner dose 0.4 µM)",95.5%
4,"C#Cc1cccc(Nc2ncnc3cc(OCCOC)c(OCCOC)cc23)c1 [erlotinib] + Cc1cc([N+](=O)[O-])ccc1NS(=O)(=O)c1cc(Cl)ccc1Cl [FH535] (first compound 0.8 µM, partner dose 1 µM)",91.5%
5,"COCC[n+]1c2c(n(Cc3cnccn3)c1C)C(=O)c1ccccc1C2=O + COc1cc2ncnc(Nc3ccc(Oc4ccccc4)cc3)c2cc1OC [SrcI1] (first compound 0.0004 µM, partner dose 2 µM)",80.4%
6,"Nc1cccc2c1CN(C1CCC(=O)NC1=O)C2=O (stereo not given) [lenalidomide] + O=c1cc(-c2cccc3c2Sc2ccccc2S3)oc(N2CCOCC2)c1 [KU55933] (first compound 1 µM, partner dose 1 µM)",103%
7,"Nc1cccc2c1CN(C1CCC(=O)NC1=O)C2=O (stereo not given) [lenalidomide] + COc1ccc(-c2ccc3c(N4CCOCC4)nc(N4C[C@@H](C)O[C@@H](C)C4)nc3n2)cc1CO [KU0063794] (first compound 1 µM, partner dose 0.02 µM)",82.9%
8,"Nc1cccc2c1CN(C1CCC(=O)NC1=O)C2=O (stereo not given) [lenalidomide] + Cc1cc([N+](=O)[O-])ccc1NS(=O)(=O)c1cc(Cl)ccc1Cl [FH535] (first compound 1 µM, partner dose 1 µM)",100%
9,"Nc1cccc2c1CN(C1CCC(=O)NC1=O)C2=O (stereo not given) [lenalidomide] + COc1cc2ncnc(Nc3ccc(Oc4ccccc4)cc3)c2cc1OC [SrcI1] (first compound 1 µM, partner dose 2 µM)",102%
10,"Cn1c(Nc2ccc(C(F)(F)F)cc2)nc2cc(Oc3ccnc(-c4ncc(C(F)(F)F)[nH]4)c3)ccc21 + COc1ccc2c(c1)CCC1C2CCC2(C)C(NCCCCCCN3C(=O)C=CC3=O)CCC12 [U73122] (first compound 0.08 µM, partner dose 0.4 µM)",66.6%
11,"Cn1c(Nc2ccc(C(F)(F)F)cc2)nc2cc(Oc3ccnc(-c4ncc(C(F)(F)F)[nH]4)c3)ccc21 + O=C(O)C(=O)Nc1sc2c(c1C(=O)O)CCNC2 [TCS401] (first compound 0.08 µM, partner dose 1.66667 µM)",74%
12,"O=C(CCCCCCC(=O)Nc1ccccc1)NO [vorinostat] + Oc1cc(-c2nc(-c3ccccc3)[nH]c2-c2ccncc2)ccc1Cl [L779450] (first compound 0.08 µM, partner dose 0.2 µM)",104%
13,"O=C(CCCCCCC(=O)Nc1ccccc1)NO [vorinostat] + O=C1NC(=O)/C(=C/c2ccc(-c3ccc(F)cc3O)o2)S1 [AS252424] (first compound 0.08 µM, partner dose 1 µM)",96.9%
14,"COCC[n+]1c2c(n(Cc3cnccn3)c1C)C(=O)c1ccccc1C2=O + Oc1nc(-c2ccc(C(F)(F)F)cc2)nc2c1CSCC2 [XAV939] (first compound 0.0004 µM, partner dose 2 µM)",86.2%
15,"C#Cc1cccc(Nc2ncnc3cc(OCCOC)c(OCCOC)cc23)c1 [erlotinib] + CCN(CC)CCCCNc1ncc2cc(-c3cc(OC)cc(OC)c3)c(NC(=O)NC(C)(C)C)nc2n1 [PD173074] (first compound 0.8 µM, partner dose 0.1 µM)",94%
16,"COCC[n+]1c2c(n(Cc3cnccn3)c1C)C(=O)c1ccccc1C2=O + c1cc(-c2cnn3cc(-c4ccc(OCCN5CCCCC5)cc4)cnc23)ccn1 [Dorsomorphin] (first compound 0.0004 µM, partner dose 0.4 µM)",73.4%
17,"O=C(CCCCCCC(=O)Nc1ccccc1)NO [vorinostat] + O=C(Nc1ccccc1)c1cc([N+](=O)[O-])ccc1Cl [GW9662] (first compound 0.08 µM, partner dose 2 µM)",101%
18,"Nc1cccc2c1CN(C1CCC(=O)NC1=O)C2=O (stereo not given) [lenalidomide] + O=C(O)C(=O)Nc1sc2c(c1C(=O)O)CCNC2 [TCS401] (first compound 1 µM, partner dose 1.66667 µM)",108%
19,"COCC[n+]1c2c(n(Cc3cnccn3)c1C)C(=O)c1ccccc1C2=O + O=c1cc(-c2cccc3c2Sc2ccccc2S3)oc(N2CCOCC2)c1 [KU55933] (first compound 0.0004 µM, partner dose 1 µM)",94.2%
20,"Nc1cccc2c1CN(C1CCC(=O)NC1=O)C2=O (stereo not given) [lenalidomide] + N#Cc1c(O)c2c(-c3ccc(-c4ccccc4O)cc3)csc2[nH]c1=O [A769662] (first compound 1 µM, partner dose 2 µM)",98.2%
21,"COCC[n+]1c2c(n(Cc3cnccn3)c1C)C(=O)c1ccccc1C2=O + CCCCCCCCCCCC1=C(O)C(=O)C=C(O)C1=O [Embelin] (first compound 0.0004 µM, partner dose 1.2 µM)",95.1%
22,"Cn1c(Nc2ccc(C(F)(F)F)cc2)nc2cc(Oc3ccnc(-c4ncc(C(F)(F)F)[nH]4)c3)ccc21 + Cc1cc([N+](=O)[O-])ccc1NS(=O)(=O)c1cc(Cl)ccc1Cl [FH535] (first compound 0.08 µM, partner dose 1 µM)",58.9%
23,"COCC[n+]1c2c(n(Cc3cnccn3)c1C)C(=O)c1ccccc1C2=O + COc1ccc2c(c1)CCC1C2CCC2(C)C(NCCCCCCN3C(=O)C=CC3=O)CCC12 [U73122] (first compound 0.0004 µM, partner dose 0.4 µM)",101%
24,"Nc1cccc2c1CN(C1CCC(=O)NC1=O)C2=O (stereo not given) [lenalidomide] + CCCCCCCCCCCC1=C(O)C(=O)C=C(O)C1=O [Embelin] (first compound 1 µM, partner dose 1.2 µM)",115%
25,"O=C(CCCCCCC(=O)Nc1ccccc1)NO [vorinostat] + c1cc(-c2cnn3cc(-c4ccc(OCCN5CCCCC5)cc4)cnc23)ccn1 [Dorsomorphin] (first compound 0.08 µM, partner dose 0.4 µM)",91.3%
